Test results published in the BET-seq Pho4 binding data (Le et al. 2018).
This is one part of the list. The energies were worked out here from pooled read counts, against the library average; single values are noisy.

molecular target: T1, Pho4 (S. cerevisiae) (UniProt P07270); assay: relative binding free energy (BET-seq); higher = weaker binding; details: reference: library average
T1 sequence: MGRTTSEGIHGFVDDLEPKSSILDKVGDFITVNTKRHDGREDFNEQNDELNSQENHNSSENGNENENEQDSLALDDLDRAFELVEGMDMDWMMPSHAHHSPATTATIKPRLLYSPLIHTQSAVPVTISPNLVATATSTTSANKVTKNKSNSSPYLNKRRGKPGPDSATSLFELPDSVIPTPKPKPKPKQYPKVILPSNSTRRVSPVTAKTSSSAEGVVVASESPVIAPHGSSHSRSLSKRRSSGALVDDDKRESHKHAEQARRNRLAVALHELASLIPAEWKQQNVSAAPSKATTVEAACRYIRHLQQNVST

Q: How did the “relative binding free energy” value turn out when TTGTACACGTGAGTGC was run?
A: Its value is 0.25 kcal/mol.

Q: ACGGGCACGTGGAGAG was tested. Which “relative binding free energy” value did it give?
A: Its value is -0.04 kcal/mol.

Q: Which “relative binding free energy” value does the source give for GGTGTCACGTGGGACA here?
A: The value was -0.01 kcal/mol.

Q: How did the “relative binding free energy” value turn out when ATAGCCACGTGAGTGT was run?
A: Its value is 0.02 kcal/mol.

Q: For ATGAGCACGTGTTGAT, which “relative binding free energy” value is on record?
A: Its value is -0.11 kcal/mol.

Q: CAAGGCACGTGTTTTA was tested. Which “relative binding free energy” value did it give?
A: The value was 0.03 kcal/mol.

Q: With CAACTCACGTGGTGGG as the sequence, how does the “relative binding free energy” value read?
A: The value was 0.18 kcal/mol.

Q: Which “relative binding free energy” value does the source give for TTCTACACGTGTTGGT here?
A: Its value is 0.19 kcal/mol.

Q: AGGGGCACGTGTCGCT was tested. Which “relative binding free energy” value did it give?
A: The value was -0.25 kcal/mol.

Q: How did the “relative binding free energy” value turn out when ATTATCACGTGTTGCT was run?
A: The value was 0.24 kcal/mol.

Q: Which “relative binding free energy” value does the source give for GGTAACACGTGCTTGG here?
A: The value was -0.02 kcal/mol.

Q: How did the “relative binding free energy” value turn out when ATTATCACGTGCTATG was run?
A: The value was 0.04 kcal/mol.

Q: For ATCGACACGTGTAGGT, which “relative binding free energy” value is on record?
A: The value was 0.16 kcal/mol.

Q: How did the “relative binding free energy” value turn out when GTAAGCACGTGCTAGG was run?
A: Its value is -0.13 kcal/mol.

Q: With CAGCTCACGTGGGGTT as the sequence, how does the “relative binding free energy” value read?
A: The value was 0.24 kcal/mol.

Q: Which “relative binding free energy” value does the source give for TGTAACACGTGTGTTT here?
A: Its value is 0.12 kcal/mol.

Q: For TTGATCACGTGGGTTT, which “relative binding free energy” value is on record?
A: The value was 0.13 kcal/mol.

Q: How did the “relative binding free energy” value turn out when GTATGCACGTGAAGGG was run?
A: The value was 0.25 kcal/mol.

Q: How did the “relative binding free energy” value turn out when GGTCTCACGTGGTGAC was run?
A: Its value is 0.45 kcal/mol.

Q: With TTGTGCACGTGTTTGC as the sequence, how does the “relative binding free energy” value read?
A: The value was -0.03 kcal/mol.

Q: For TTGGACACGTGAGTAC, which “relative binding free energy” value is on record?
A: The value was 0.33 kcal/mol.

Q: With TAGTGCACGTGTAATA as the sequence, how does the “relative binding free energy” value read?
A: Its value is 0.09 kcal/mol.

Q: For GTTTGCACGTGATTTT, which “relative binding free energy” value is on record?
A: Its value is 0.13 kcal/mol.

Q: With GGGATCACGTGGCGAT as the sequence, how does the “relative binding free energy” value read?
A: Its value is 0.08 kcal/mol.

Q: CGTGTCACGTGCGTTG was tested. Which “relative binding free energy” value did it give?
A: The value was 0.03 kcal/mol.

Q: Which “relative binding free energy” value does the source give for ATTCTCACGTGTATTT here?
A: The value was 0.23 kcal/mol.

Q: TCCGGCACGTGGAAGG was tested. Which “relative binding free energy” value did it give?
A: The value was 0.09 kcal/mol.

Q: Which “relative binding free energy” value does the source give for TTTTTCACGTGGTTAT here?
A: The value was 0.29 kcal/mol.

Q: For TAAGGCACGTGGGTGG, which “relative binding free energy” value is on record?
A: Its value is -0.22 kcal/mol.

Q: With GGGCTCACGTGGGTAA as the sequence, how does the “relative binding free energy” value read?
A: The value was 0.08 kcal/mol.

Q: How did the “relative binding free energy” value turn out when CAAGGCACGTGGGATG was run?
A: Its value is -0.06 kcal/mol.

Q: For TTTGCCACGTGAGGGC, which “relative binding free energy” value is on record?
A: Its value is 0.15 kcal/mol.

Q: How did the “relative binding free energy” value turn out when TGAGGCACGTGTTACT was run?
A: The value was -0.15 kcal/mol.

Q: With TTTCGCACGTGAGTAT as the sequence, how does the “relative binding free energy” value read?
A: Its value is 0.06 kcal/mol.

Q: For GGTTACACGTGGATGC, which “relative binding free energy” value is on record?
A: Its value is 0.17 kcal/mol.

Q: With GACGGCACGTGAGGGC as the sequence, how does the “relative binding free energy” value read?
A: The value was 0.13 kcal/mol.

Q: Which “relative binding free energy” value does the source give for CACAGCACGTGTGTGT here?
A: Its value is 0.02 kcal/mol.

Q: Which “relative binding free energy” value does the source give for ATCGACACGTGAGGGG here?
A: Its value is 0.12 kcal/mol.

Q: How did the “relative binding free energy” value turn out when TTATACACGTGAGTCT was run?
A: Its value is 0.25 kcal/mol.

Q: For TCTTACACGTGTGTGC, which “relative binding free energy” value is on record?
A: The value was 0.26 kcal/mol.

Q: How did the “relative binding free energy” value turn out when CGGCGCACGTGGTTGG was run?
A: The value was -0.13 kcal/mol.

Q: For TTATGCACGTGGGATG, which “relative binding free energy” value is on record?
A: Its value is -0.11 kcal/mol.

Q: With AGCGGCACGTGTTGAA as the sequence, how does the “relative binding free energy” value read?
A: Its value is 0.01 kcal/mol.

Q: For GGTGGCACGTGGGACA, which “relative binding free energy” value is on record?
A: The value was -0.22 kcal/mol.

Q: With AATGTCACGTGGATGT as the sequence, how does the “relative binding free energy” value read?
A: The value was 0.02 kcal/mol.

Q: With TGGGACACGTGCTGCG as the sequence, how does the “relative binding free energy” value read?
A: The value was -0.15 kcal/mol.

Q: With AGGTTCACGTGGAGGC as the sequence, how does the “relative binding free energy” value read?
A: The value was 0.27 kcal/mol.

Q: For GTTTACACGTGATGTA, which “relative binding free energy” value is on record?
A: Its value is 0.45 kcal/mol.

Q: For TTTCGCACGTGGCGAT, which “relative binding free energy” value is on record?
A: The value was -0.07 kcal/mol.

Q: For AGTTACACGTGGCTAG, which “relative binding free energy” value is on record?
A: Its value is 0.02 kcal/mol.

Q: AGTAGCACGTGACTGG was tested. Which “relative binding free energy” value did it give?
A: The value was 0.02 kcal/mol.

Q: How did the “relative binding free energy” value turn out when AAGGTCACGTGGTAAC was run?
A: Its value is 0.33 kcal/mol.

Q: ACGTTCACGTGAGGAG was tested. Which “relative binding free energy” value did it give?
A: The value was 0.24 kcal/mol.

Q: With CGGGACACGTGATCGG as the sequence, how does the “relative binding free energy” value read?
A: The value was 0.11 kcal/mol.

Q: For GGCGGCACGTGGATAG, which “relative binding free energy” value is on record?
A: Its value is -0.07 kcal/mol.

Q: With TGGAGCACGTGCGCTT as the sequence, how does the “relative binding free energy” value read?
A: The value was -0.05 kcal/mol.

Q: For TGGGCCACGTGTCGGG, which “relative binding free energy” value is on record?
A: Its value is 0.03 kcal/mol.

Q: How did the “relative binding free energy” value turn out when TTAAGCACGTGGTAAT was run?
A: Its value is -0.25 kcal/mol.

Q: How did the “relative binding free energy” value turn out when GTTGTCACGTGTTACC was run?
A: The value was 0.35 kcal/mol.

Q: GGGTTCACGTGTAGAG was tested. Which “relative binding free energy” value did it give?
A: The value was 0.36 kcal/mol.

Q: With TTGTACACGTGGGCCG as the sequence, how does the “relative binding free energy” value read?
A: Its value is -0.11 kcal/mol.

Q: How did the “relative binding free energy” value turn out when TGTTGCACGTGATATT was run?
A: Its value is 0.13 kcal/mol.

Q: How did the “relative binding free energy” value turn out when TGTGGCACGTGGAGTG was run?
A: Its value is -0.07 kcal/mol.
